The values that follow come from the supplement of paper PMC12067093, “Discovery and optimisation of a covalent ligand for TRIM25 and its application to targeted protein ubiquitination” (Chemical Science, 2025).

Compound in the experiment: CC1Cc2ccccc2N1C(=O)C1CCCN(C1)C(=O)CCl (mixture of isomers) [TRIM25 ligand 11 (diastereomer mixture)]
Put plainly: probe-labelled cysteine peptide fold change vs DMSO (competition) (log2 fold change); higher = less target engagement (more negative = stronger competition). Particulars: THP-1, incubation time: 4 h.

Targets with the largest changes are over-represented here; the source holds about 21,000 in all.
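Note: competitive chemoproteomic profiling in live THP-1 cells with an iodoacetamide desthiobiotin (IA-DTB) probe, comparing probe-labelled peptide intensities in compound-treated cells against DMSO-treated controls.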

Sequence of UniProt P07814 (P07814 whole entry, looked up): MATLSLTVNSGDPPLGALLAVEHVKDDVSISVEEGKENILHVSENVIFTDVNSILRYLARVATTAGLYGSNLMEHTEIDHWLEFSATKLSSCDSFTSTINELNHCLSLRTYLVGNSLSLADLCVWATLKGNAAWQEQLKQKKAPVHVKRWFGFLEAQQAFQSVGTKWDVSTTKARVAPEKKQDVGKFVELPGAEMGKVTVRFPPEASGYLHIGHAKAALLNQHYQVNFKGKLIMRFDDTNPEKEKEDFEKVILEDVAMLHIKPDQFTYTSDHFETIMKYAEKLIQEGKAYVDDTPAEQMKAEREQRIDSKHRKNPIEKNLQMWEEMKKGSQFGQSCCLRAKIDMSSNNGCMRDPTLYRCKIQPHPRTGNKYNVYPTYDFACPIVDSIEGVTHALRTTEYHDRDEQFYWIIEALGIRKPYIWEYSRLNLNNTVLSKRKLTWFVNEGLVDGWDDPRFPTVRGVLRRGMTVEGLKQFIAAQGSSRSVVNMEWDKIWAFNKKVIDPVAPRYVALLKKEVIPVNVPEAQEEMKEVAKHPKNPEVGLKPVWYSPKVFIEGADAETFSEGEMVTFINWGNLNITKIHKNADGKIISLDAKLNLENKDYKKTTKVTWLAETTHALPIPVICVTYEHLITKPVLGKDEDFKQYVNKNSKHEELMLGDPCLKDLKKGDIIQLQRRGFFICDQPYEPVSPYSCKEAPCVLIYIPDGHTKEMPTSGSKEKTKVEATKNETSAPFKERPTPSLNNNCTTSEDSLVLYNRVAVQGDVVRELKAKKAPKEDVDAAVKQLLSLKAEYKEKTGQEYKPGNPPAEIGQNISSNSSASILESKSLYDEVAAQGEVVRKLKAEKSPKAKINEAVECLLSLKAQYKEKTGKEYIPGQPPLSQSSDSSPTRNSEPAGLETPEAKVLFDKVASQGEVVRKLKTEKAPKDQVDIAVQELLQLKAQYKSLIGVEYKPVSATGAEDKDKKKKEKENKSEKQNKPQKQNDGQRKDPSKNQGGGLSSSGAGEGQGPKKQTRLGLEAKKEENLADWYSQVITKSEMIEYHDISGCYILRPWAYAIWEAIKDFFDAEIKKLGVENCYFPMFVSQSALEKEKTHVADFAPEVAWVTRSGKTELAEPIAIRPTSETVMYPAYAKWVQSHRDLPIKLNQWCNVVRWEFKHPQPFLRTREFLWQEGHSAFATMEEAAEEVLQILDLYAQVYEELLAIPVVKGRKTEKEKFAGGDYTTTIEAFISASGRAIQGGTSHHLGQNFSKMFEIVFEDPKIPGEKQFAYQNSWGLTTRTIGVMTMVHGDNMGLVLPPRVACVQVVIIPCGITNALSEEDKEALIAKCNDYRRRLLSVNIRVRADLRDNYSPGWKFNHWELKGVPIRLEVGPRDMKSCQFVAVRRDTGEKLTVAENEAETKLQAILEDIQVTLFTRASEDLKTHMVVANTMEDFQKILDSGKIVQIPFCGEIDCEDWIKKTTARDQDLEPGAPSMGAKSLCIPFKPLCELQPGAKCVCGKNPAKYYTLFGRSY
Sequence of UniProt Q13451 (Q13451 whole entry, looked up): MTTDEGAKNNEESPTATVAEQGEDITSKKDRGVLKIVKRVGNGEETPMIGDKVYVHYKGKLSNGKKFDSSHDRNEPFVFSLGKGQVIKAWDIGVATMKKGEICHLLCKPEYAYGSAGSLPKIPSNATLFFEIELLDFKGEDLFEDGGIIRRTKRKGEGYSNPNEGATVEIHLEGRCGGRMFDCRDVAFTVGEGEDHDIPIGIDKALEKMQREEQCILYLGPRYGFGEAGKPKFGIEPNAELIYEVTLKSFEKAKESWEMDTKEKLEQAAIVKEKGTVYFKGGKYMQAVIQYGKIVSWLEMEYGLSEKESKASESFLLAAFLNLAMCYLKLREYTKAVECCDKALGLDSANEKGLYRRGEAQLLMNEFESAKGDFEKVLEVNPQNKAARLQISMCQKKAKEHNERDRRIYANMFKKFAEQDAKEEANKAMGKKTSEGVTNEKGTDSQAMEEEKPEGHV
Sequence of UniProt P55884 (P55884 whole entry, looked up): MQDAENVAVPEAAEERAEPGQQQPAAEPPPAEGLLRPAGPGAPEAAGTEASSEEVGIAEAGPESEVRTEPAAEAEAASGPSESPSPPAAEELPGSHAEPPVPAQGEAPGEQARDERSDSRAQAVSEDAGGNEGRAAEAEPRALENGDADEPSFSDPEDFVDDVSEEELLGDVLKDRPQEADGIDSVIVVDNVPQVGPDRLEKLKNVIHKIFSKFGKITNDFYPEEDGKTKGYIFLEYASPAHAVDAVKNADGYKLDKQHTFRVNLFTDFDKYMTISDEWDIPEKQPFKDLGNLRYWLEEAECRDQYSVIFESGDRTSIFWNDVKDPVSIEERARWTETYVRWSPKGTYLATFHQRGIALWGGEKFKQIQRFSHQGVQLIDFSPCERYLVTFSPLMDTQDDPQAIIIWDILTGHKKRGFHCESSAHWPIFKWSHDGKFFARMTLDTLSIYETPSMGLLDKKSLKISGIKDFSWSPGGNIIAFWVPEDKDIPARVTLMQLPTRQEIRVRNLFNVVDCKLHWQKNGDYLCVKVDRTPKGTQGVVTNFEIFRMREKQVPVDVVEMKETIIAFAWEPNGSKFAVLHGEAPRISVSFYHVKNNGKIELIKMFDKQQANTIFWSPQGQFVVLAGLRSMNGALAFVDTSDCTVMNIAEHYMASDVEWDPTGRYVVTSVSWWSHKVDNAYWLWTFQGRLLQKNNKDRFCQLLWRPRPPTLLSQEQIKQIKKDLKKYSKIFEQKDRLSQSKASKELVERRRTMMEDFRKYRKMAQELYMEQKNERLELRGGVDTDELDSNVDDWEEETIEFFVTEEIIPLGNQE
Sequence of UniProt Q9UK61 (Q9UK61 whole entry, looked up): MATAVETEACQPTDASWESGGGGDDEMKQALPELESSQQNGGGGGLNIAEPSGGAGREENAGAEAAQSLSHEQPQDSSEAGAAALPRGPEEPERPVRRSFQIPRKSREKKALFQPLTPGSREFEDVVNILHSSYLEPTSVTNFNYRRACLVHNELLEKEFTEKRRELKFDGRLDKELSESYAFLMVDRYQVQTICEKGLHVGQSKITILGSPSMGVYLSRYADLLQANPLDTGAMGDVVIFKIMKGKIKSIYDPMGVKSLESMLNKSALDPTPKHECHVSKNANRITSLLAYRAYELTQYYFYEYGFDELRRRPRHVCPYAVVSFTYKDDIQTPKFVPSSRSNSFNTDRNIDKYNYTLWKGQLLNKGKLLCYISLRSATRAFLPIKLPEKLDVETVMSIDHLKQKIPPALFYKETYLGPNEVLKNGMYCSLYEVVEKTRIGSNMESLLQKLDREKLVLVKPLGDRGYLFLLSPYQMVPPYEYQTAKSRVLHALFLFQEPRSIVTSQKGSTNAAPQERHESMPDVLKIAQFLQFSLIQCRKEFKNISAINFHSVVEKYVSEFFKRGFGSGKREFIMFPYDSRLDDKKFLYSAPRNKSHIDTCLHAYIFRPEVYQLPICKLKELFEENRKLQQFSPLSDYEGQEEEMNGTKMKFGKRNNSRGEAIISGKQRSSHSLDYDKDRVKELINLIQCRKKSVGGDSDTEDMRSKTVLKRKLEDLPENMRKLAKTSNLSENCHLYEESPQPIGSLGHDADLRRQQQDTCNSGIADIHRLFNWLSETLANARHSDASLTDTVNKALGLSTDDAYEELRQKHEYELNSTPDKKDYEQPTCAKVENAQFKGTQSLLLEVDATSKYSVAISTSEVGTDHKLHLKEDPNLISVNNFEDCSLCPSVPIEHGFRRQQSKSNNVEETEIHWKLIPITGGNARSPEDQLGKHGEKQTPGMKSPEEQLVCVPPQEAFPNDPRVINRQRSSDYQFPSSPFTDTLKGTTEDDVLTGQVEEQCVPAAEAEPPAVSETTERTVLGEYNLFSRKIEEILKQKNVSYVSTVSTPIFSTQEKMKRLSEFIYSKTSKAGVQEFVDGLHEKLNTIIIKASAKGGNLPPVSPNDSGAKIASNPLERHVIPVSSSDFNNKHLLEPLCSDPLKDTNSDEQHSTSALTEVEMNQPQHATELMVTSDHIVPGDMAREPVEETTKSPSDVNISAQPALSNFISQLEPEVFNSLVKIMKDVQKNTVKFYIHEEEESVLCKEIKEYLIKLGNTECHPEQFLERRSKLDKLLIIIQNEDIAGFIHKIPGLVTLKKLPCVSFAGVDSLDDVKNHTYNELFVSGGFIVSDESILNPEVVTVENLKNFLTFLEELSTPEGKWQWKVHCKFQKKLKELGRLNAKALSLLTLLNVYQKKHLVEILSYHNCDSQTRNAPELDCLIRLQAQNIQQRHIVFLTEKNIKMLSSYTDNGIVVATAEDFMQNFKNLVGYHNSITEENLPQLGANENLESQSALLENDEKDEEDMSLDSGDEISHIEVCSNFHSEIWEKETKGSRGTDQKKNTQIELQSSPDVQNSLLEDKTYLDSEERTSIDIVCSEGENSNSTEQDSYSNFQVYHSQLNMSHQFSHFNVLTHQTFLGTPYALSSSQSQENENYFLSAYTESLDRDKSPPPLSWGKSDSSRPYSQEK
Sequence of UniProt P11474 (P11474 whole entry): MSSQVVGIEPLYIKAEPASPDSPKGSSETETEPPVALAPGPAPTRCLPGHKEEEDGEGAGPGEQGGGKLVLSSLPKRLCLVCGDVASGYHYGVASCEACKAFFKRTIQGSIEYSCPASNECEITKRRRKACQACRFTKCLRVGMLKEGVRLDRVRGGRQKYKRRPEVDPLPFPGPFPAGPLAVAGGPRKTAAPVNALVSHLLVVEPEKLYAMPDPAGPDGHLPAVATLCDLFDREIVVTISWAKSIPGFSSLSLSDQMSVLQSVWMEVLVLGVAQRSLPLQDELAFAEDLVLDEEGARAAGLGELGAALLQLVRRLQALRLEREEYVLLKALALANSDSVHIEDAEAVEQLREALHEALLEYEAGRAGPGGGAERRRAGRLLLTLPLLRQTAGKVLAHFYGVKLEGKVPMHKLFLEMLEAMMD
Sequence of UniProt Q9NVQ4 (Q9NVQ4 whole entry): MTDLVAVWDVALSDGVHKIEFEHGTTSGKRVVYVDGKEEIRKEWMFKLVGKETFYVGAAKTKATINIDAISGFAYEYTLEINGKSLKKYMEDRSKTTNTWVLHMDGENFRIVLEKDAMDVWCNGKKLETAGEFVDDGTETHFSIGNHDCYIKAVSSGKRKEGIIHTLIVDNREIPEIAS

Regarding “FBL_P22087_268_ANCIDSTASAEAVFASEVKK (UniProt P22087)”, the “probe-labelled cysteine peptide fold change” value by setting is: (10 µM) -0.00811; (50 µM) 0.0128.

“EGLN1_Q9GZT9_266_EPGCETIGLLMSSMDDLIR (UniProt Q9GZT9)”: the “probe-labelled cysteine peptide fold change” value (10 µM) was found to be 0.585 and the “probe-labelled cysteine peptide fold change” value (50 µM) came out at 0.341.

“FBXO22_Q8NEZ5_7_MEPVGCCGECR (UniProt Q8NEZ5)”: the “probe-labelled cysteine peptide fold change” value (10 µM) was determined as 0.891 and the “probe-labelled cysteine peptide fold change” value (50 µM) was determined as 0.848.

“FAM208A_Q9UK61_1421_NAPELDCLIR (UniProt Q9UK61)”: the “probe-labelled cysteine peptide fold change” value is, setting by setting: (10 µM) 0.0104; (50 µM) -0.107.

For the target “EIF3B_P55884_700_DRFCQLLWR (UniProt P55884)”, the “probe-labelled cysteine peptide fold change” value reads like this: (10 µM) 0.0444; (50 µM) 0.133.

In the case of “ELAC2_Q9BQ52_245_DSSLVVAFICK (UniProt Q9BQ52)”, the “probe-labelled cysteine peptide fold change” value was -0.114 (10 µM) and 0.113 (50 µM).

Regarding “EDC4_Q6P2E9_510_LFCVHTK (UniProt Q6P2E9)”, the “probe-labelled cysteine peptide fold change” value (10 µM) came out at 0.0229 and the “probe-labelled cysteine peptide fold change” value (50 µM) was determined as 0.0623.

Consider “FTSJ1_Q9UET6_295_EIRPQDCPISR (UniProt Q9UET6)”, for which the “probe-labelled cysteine peptide fold change” value reads like this: (10 µM) -0.0202; (50 µM) -0.23.

“FAM98A_Q8NCA5_126_MLCVNAPPK (UniProt Q8NCA5)”: the “probe-labelled cysteine peptide fold change” value is -0.0668 (10 µM) and -0.0637 (50 µM).

On to “ESRRA_P11474_46_CLPGHKEEEDGEGAGPGEQGGGK (UniProt P11474)”, for which the “probe-labelled cysteine peptide fold change” value by setting is: (10 µM) -0.071; (50 µM) -0.233.

For the target “FUT4_P22083_211_DSAPRPPPDCR (UniProt P22083)”, the “probe-labelled cysteine peptide fold change” value reads like this: (10 µM) 0.0479; (50 µM) 0.119.

With “FARS2_O95363_413_TSHCYR (UniProt O95363)”, the “probe-labelled cysteine peptide fold change” value by setting is: (10 µM) 0.0791; (50 µM) 0.184.

For “FAIM_Q9NVQ4_149_KLETAGEFVDDGTETHFSIGNHDCYIK (UniProt Q9NVQ4)”, the “probe-labelled cysteine peptide fold change” value runs as follows: (10 µM) 0.126; (50 µM) -0.0565.

Take “FKBP5_Q13451_394_LQISMCQK (UniProt Q13451)”: the “probe-labelled cysteine peptide fold change” value is, setting by setting: (10 µM) -0.0666; (50 µM) -0.157.

Consider “EPRS_P07814_660_NSKHEELMLGDPCLK (UniProt P07814)”, for which the “probe-labelled cysteine peptide fold change” value reads like this: (10 µM) -0.67; (50 µM) -0.626.
